According to PubChem BioAssay AID1745853 (National Center for Advancing Translational Sciences (NCATS), 2022):
Some of the results follow. The main result of the screen is listed elsewhere. These columns were measured beside it and carry no call.

Key:
Test in all cases: Primary Screen for Target Class Profiling of Small Molecule Inhibitors of Methyltransferases
[1] = biological target: Glycine N-methyltransferase (Homo sapiens) (UniProt Q14749); conditions: purified enzyme, MTase-Glo SAH luminescence; measured here: GNMT inhibition; at 40 µM; stronger effect = lower value
How it was run: (§1)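 Each enzyme was assayed with SAM and its substrate. SAH formation detected by MTase-Glo luminescence; single-point 40 uM screen[…].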

[2] = biological target: Guanidinoacetate N-methyltransferase (Homo sapiens) (UniProt Q14353); conditions: purified enzyme, MTase-Glo SAH luminescence; measured here: GAMT inhibition; at 40 µM; stronger effect = lower value
How it was run: as §1

[3] = biological target: Histamine N-methyltransferase (Homo sapiens) (UniProt P50135); conditions: purified enzyme, MTase-Glo SAH luminescence; measured here: HNMT inhibition; at 40 µM; stronger effect = lower value
How it was run: as §1

[4] = biological target: Nicotinamide N-methyltransferase (Homo sapiens) (UniProt P40261); conditions: purified enzyme, MTase-Glo SAH luminescence; measured here: NNMT inhibition; at 40 µM; stronger effect = lower value
How it was run: as §1

[5] = biological target: Phenylethanolamine N-methyltransferase (Homo sapiens) (UniProt P11086); conditions: purified enzyme, MTase-Glo SAH luminescence; measured here: PNMT inhibition; at 40 µM; stronger effect = lower value
How it was run: as §1
On the % scale 0 is the no-effect control and ±100 the full control effect.

SMILES | activity change, negative = inhibition [1] [%] | activity change, negative = inhibition [2] [%] | activity change, negative = inhibition [3] [%] | activity change, negative = inhibition [4] [%] | activity change, negative = inhibition [5] [%]
CCOc1ccccc1N1CCN(Cc2ccc(=O)n(CC)c2)CC1 | -1.55 | 0.82 | 1.03 | -4.15 | 9.08
O=C([C@@H]1C[C@H](F)CN1C(=O)NC1CCCCC1)N1CCc2ccccc2C1 | -6.95 | -5.44 | 0.071 | -12.2 | -9.81
CN1C(=O)C(c2ccccc2)CC12CCN(S(=O)(=O)N(C)C)CC2 (stereo not given) | -5.12 | -5.71 | -1.78 | -8.6 | 1.13
COc1ccc(CCNC(=O)CCc2nnc3n(CCCOC(C)C)c(=O)c4ccccc4n23)cc1OC | -5.28 | -1.99 | 3.7 | -1.83 | -8.06
COc1ccc(CCNC(=O)c2cc3n(n2)CC(C)(C(=O)NC2CCCC2)N(C)C3=O)cc1OC (stereo not given) | 3.25 | 0.482 | 0.59 | 2.75 | 3.94
CC(C)Cn1c(=O)c2ccc(C(=O)NC(C)C)cc2n2c(=O)n(CC(=O)c3cccc(Cl)c3)nc12 | 4.02 | 1.42 | 6.03 | 0.344 | 2.55
Cc1cc(NS(=O)(=O)c2ccc3[nH]c(=O)[nH]c3c2)ccc1Br | 6.17 | 0 | 13.1 | -2.6 | -42.3
CC1(C(=O)NC2CCCCCC2)Cn2c(cc3sccc32)C(=O)N1Cc1ccc(Cl)cc1 (stereo not given) | -7.14 | 4.99 | -5.11 | -5.54 | -7.35
O=C(Nc1ccccc1)N[C@H]1[C@H](O)[C@@H](N2CCCCC2)[C@@H]2OC[C@H]1O2 | -0.315 | -0.339 | 1.44 | 0.107 | -9.41
COC[C@H]1C[C@@H](NC(=O)c2cc(C)oc2C(F)(F)F)[C@H](O)[C@@H]1O | -1.48 | 1.24 | -9.22 | -1.94 | 10.6
C[C@H]1CCCN1C(=O)c1nnc(COc2ccc(F)c(F)c2)n1-c1cccnc1 | -3.87 | -1.97 | -0.003 | -10.2 | -0.688
NC(=NCCCCCCN=C(N)/N=C(\N)Nc1ccc(Cl)cc1)/N=C(\N)Nc1ccc(Cl)cc1 | -32 | 9.54 | -93.2 | -63.3 | -65.7
CC(C)[C@H]1CC[C@@]2(O)COC(=O)[C@H]2[C@@H]1/C=C(\CO)C(=O)O | 2.4 | 1.24 | 7.07 | -11.6 | -6.68
CN(C)S(=O)(=O)N1[C@@H]2CC[C@H]1CC(NC(=O)c1ccc(F)cc1)C2 (stereo not given in full) | 0.655 | 0.69 | 4.19 | 1.9 | -7.22
O=C(O)CCc1cccc(O[C@@H]2O[C@H](CO)[C@@H](O)[C@H](O)[C@H]2O)c1O | 3.72 | 2.35 | 12.1 | -6.07 | 3.28
CC(C)(C)C(=O)C(Oc1ccc(Cl)cc1)n1ccnc1 (stereo not given) | 2.38 | -1.72 | 0.318 | -13.5 | -4.82
O=C1c2cc3occc3n2CC(C(=O)NC2CCCCCCC2)(c2ccccc2)N1Cc1ccc(Cl)cc1 (stereo not given) | 3.3 | 0 | 4.52 | 4.07 | -2.08
O=C(CCc1nnc2n(CCc3ccccc3)c(=O)c3ccccc3n12)NCCCN1CCCCC1 | -6.02 | 4.87 | -60.3 | 4.12 | -2.18
CC1(C(=O)NC2CCCCC2)Cn2c(cc3occc32)C(=O)N1CCc1ccccc1 (stereo not given) | -10.6 | 1.44 | -7.34 | -4.43 | -8.12

SMILES | activity change, negative = inhibition [1] [%] | activity change, negative = inhibition [2] [%] | activity change, negative = inhibition [3] [%] | activity change, negative = inhibition [4] [%] | activity change, negative = inhibition [5] [%]
CCOC(=O)c1cc2n(n1)CC(C)(C(=O)NCc1ccc(C)cc1)N(c1cccc(F)c1)C2=O (stereo not given) | -2.1 | 7.04 | 1.06 | -4.1 | -2.95
COc1ccccc1CNC(=O)C1(C)Cn2nc(-c3ccccc3)cc2C(=O)N1c1cc(C)ccc1C (stereo not given) | 0.822 | 0 | 2.54 | 3.2 | 0.375
CC(C)OCCCNC(=O)C1c2c(n(C)c3ccccc23)SCC(=O)N1Cc1ccco1 (stereo not given) | 9.33 | 0 | 1.46 | 4.41 | 4.87
Cn1c(=O)c2ccc(C(=O)NC3CCCC3)cc2n2c(=O)n(CC(=O)NC3CCCCC3)nc12 | 1.58 | 0 | 1.08 | -0.863 | 3.38
COc1cccc(N2C(=O)c3cc4occc4n3CC2(C)C(=O)NC2CCCC(C)C2C)c1 (stereo not given) | 2.46 | 0 | 5.07 | 7.96 | -0.285
Cn1nccc1CN1CCCC2(COc3ccccc3C(=O)N2)C1 (stereo not given) | -8.77 | -0.327 | -1.9 | -9.14 | 7.15
Cc1nsc(NC(=O)N2CCC(CO)CC2)n1 | -1.04 | -1 | -1.47 | -0.23 | -7.93
Cc1ccc(CNC(=O)c2sc(=S)n3c2[nH]c(=O)c2cc4c(cc23)OCO4)cc1 | -4.31 | 3.46 | 5.13 | -11.3 | -3.47
Cc1ccccc1N1CCN(C(=O)c2nnn3c2COC(c2ccc(Cl)cc2)C3)CC1 (stereo not given) | -1.62 | -1.83 | -3.04 | -6.54 | -0.938
COc1ccccc1CNC(=O)C1(C)Cn2nc(-c3ccccc3)cc2C(=O)N1c1cccc(F)c1 (stereo not given) | 4.61 | 0 | 7.39 | 8.14 | -8.72
Cn1ccnc1C(=O)C1CCCN(Cc2cc(=O)c3cccc(Cl)c3[nH]2)C1 (stereo not given) | -13.1 | -0.365 | -5.86 | -8.35 | 2.21
CCCn1c(=O)c2cc(Cl)ccc2n2c(=O)n(CC(=O)Nc3cccc(F)c3)nc12 | -2.02 | 2.25 | 4.03 | -3.66 | -2.4
CCCn1c(=O)c2ccc(C(=O)NC(C)CC)cc2n2c(=O)n(CC(=O)c3ccc(F)cc3F)nc12 (stereo not given) | 1.46 | 0.343 | 3.16 | -1.64 | 3
CCc1cc2c(cc3n2CC(C)(C(=O)NC2CCCCCC2)N(CCCN2CCCCC2)C3=O)s1 (stereo not given) | -6.29 | 1.29 | -7.12 | -1.22 | -5.87
O=C([C@@H]1COCC(=O)N1Cc1ccccc1)N1CCN(Cc2ccc3c(c2)OCO3)CC1 | -0.157 | 0.241 | 2.54 | -5.16 | 17.8
Cc1ccc(Cn2c(=O)c3ccccc3n3c(CCC(=O)NCCCN4CCCC4=O)nnc23)cc1 | -1.18 | 0 | 3.29 | 3.8 | 1.82
CC(C)OCCCNC(=O)C1c2c(n(C)c3ccccc23)SCC(=O)N1c1ccc(C(C)C)cc1 (stereo not given) | 0.195 | 0 | -2.45 | -1.59 | 2.26
C/C=C/C=C/C(O)=C1\C(O)=C(C)C(=O)[C@@]2(C)OC(=O)[C@@](C)(NC(=O)/C=C/C(=O)O)[C@@H]12 | 0 | -4.32 | 8.71 | -16.7 | -8.9
COc1ccc(-c2nc(-c3ccc(-c4cccc(Cl)c4)o3)[nH]c2-c2ccc(OC)cc2)cc1 | 2.05 | -19.2 | -1.46 | -47.7 | -18.7

SMILES | activity change, negative = inhibition [1] [%] | activity change, negative = inhibition [2] [%] | activity change, negative = inhibition [3] [%] | activity change, negative = inhibition [4] [%] | activity change, negative = inhibition [5] [%]
Cc1nnc(-c2ccc(-c3ccc(C(=O)Nc4ccc(O)c(N5CCN(C)CC5)c4)cc3)c(C)c2)o1 | -6.48 | 3.68 | -16.5 | -25.9 | 2.29
CCCn1c(=O)c2ccc(C(=O)NC(C)C)cc2n2c(=O)n(CC(=O)c3ccc(C)cc3C)nc12 | -0.201 | 3.51 | 6.27 | -3.78 | 0.737
CCOc1ccccc1CNC(=O)c1cc2n(n1)CC(C)(C(=O)NCc1ccc(C)cc1)N(C)C2=O (stereo not given) | 2.67 | 0 | 1.39 | 5.03 | 0.487
C=Cc1ccc(Cn2nc3n(CCC)c(=O)c4ccc(C(=O)NCC(C)C)cc4n3c2=O)cc1 | 5.11 | 0.478 | 9.76 | 1.29 | 5.87
CC(C)CNC(=O)c1ccc2c(=O)n(C(C)C)c3nn(Cc4ccccc4Cl)c(=O)n3c2c1 | 2.87 | 0 | 6.36 | 4.9 | 4.88
CCOC(=O)c1cc2n(n1)CC(C)(C(=O)NC1CCCCC1)N(c1ccc(OCC)cc1)C2=O (stereo not given) | 3.95 | 0 | -0.748 | 3.23 | 5.2
CC1(C(=O)NC2CCCCCC2)Cn2c(ccc2-c2ccco2)C(=O)N1Cc1ccccc1Cl (stereo not given) | -9.29 | 3.05 | -1.94 | -20 | -4.13
O=C(COc1ccc(F)cc1)N1CCCCC1c1nc(-c2cnccn2)n[nH]1 (stereo not given) | -2.38 | 4.51 | 2.97 | -4.49 | 8.54
CN(C)CC1CCn2c(c(C3=C(c4cn(C)c5ccccc45)C(=O)NC3=O)c3ccccc32)C1 (stereo not given) | -10.3 | 2.83 | -43.1 | -51 | -6.31
COc1cc(O[C@@H]2O[C@H](CO)[C@@H](O)[C@H](O)[C@H]2O)c(CCC(=O)OC[C@H]2O[C@@H](Oc3cc(OC)c(C4OC(=O)C(C)(O)C4O)cc3CCC(=O)O)[C@H](O)[C@@H](O)[C@@H]2O)cc1C1OC(=O)C(C)(O)C1O (stereo not given in full) | 0 | -8.08 | 0.117 | -18.7 | 0.829
CC(NC(=O)CCc1nnc2n(Cc3ccc(Cl)cc3)c(=O)c3ccccc3n12)c1ccccc1 (stereo not given) | -3.5 | -4.98 | 3.12 | -9.2 | -5.5
CCC(C)NC(=O)c1ccc2c(=O)n(C)c3nnc(SCC(=O)Nc4cc(C)cc(C)c4)n3c2c1 (stereo not given) | 1.51 | 0.24 | -3.27 | 0.372 | -1.35
Cc1cc(C)cc(N2C(=O)c3cc(C(C)(C)C)nn3CC2(C)C(=O)NC2CCCCC2)c1 (stereo not given) | -6.49 | -2.06 | -3.78 | -6.07 | -2.64
CCOC(=O)c1cc2n(n1)CC(C)(C(=O)NCCC(C)C)N(Cc1ccc(Cl)cc1)C2=O (stereo not given) | 0.756 | 5.21 | -0.146 | 1.96 | -2.64
COCCCN1C(=O)c2cc3occc3n2CC1(C)C(=O)NC1CCCCC1C (stereo not given) | 4.27 | 2.19 | 6.48 | 4.76 | 1.33
O=C(CCc1nnc2n(CCc3ccccc3)c(=O)c3ccccc3n12)NCCc1c[nH]c2ccccc12 | 3.34 | 3.78 | -5.11 | -2.18 | 0.603
Cc1ccc(Cn2c(=O)c3ccc(C(=O)NCC(C)C)cc3n3c(=O)n(Cc4ccc(F)cc4)nc23)cc1 | 11.6 | 0.323 | 9.77 | 12.3 | 10.3
Cc1ccccc1CN1C(=O)c2ccc(-c3ccco3)n2CC1(C)C(=O)NC1CCCCCCC1 (stereo not given) | -3.68 | 0 | 1.14 | -8.41 | -3.75
COCc1cccc(-c2n[nH]c3c2CC(=O)N(c2ccccc2)C3)c1 | -6.6 | -4.93 | -4.72 | -7.47 | -7.77
